# Experimental data as given in the supplement of paper PMC3334620.
# The full ranking holds about 33,000 sequences; the median of “E-score (-0.5 to 0.5)” is about -0.016, and the highest 2% start at about 0.32. The list shows a part of the results.
# Target: T1, Stp1 (UniProt B3LFK1)
# T1 sequence: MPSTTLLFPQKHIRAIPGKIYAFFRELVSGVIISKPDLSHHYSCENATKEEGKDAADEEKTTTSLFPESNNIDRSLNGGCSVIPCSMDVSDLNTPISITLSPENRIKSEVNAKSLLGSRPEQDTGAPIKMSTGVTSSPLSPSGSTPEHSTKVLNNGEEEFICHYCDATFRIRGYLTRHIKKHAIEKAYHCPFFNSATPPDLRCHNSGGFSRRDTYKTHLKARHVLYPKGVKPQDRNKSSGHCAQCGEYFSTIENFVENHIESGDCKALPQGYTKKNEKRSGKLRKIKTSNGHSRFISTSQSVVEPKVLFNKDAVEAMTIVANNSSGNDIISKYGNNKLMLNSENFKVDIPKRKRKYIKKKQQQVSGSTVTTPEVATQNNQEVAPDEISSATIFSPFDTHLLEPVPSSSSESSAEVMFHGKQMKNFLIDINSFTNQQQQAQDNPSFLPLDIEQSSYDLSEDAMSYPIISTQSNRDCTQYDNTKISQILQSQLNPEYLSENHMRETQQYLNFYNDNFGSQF
# Assay: PBM E-score (8-mer binding enrichment) (E-score (-0.5 to 0.5)); higher = stronger / more preferred TF binding; most listed sequences are background and not binding sites
# Details: protein concentration: 200 nM; construct: GST-full length
# Protocol: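 Universal 'all 10-mer' protein binding microarrays (Agilent AMADID 015681) probed with GST-tagged S. cerevisiae TFs (full-length or DBD) made by in vitro transcription/translation (PURExpress), about 100-200 nM. Bound TF was detected with fluorescent anti-GST. Each ungapped 8-mer (which stands for itself and its reverse complement) is scored by the PBM enrichment score (E-score), a modified Wilcoxon-Mann-Whitney statistic from -0.5 to +0.5, computed with the Universal PBM Analysis Suite. Scale: above 0.35 generally sequence-specific binding.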
row,Sequence,PBM E-score
1,CGTCAAGC,-0.0973
2,GTCCGTGA,-0.00593
3,CACTCTGC,-0.129
4,CGGGGGCC,-0.3
5,GGTCGGTA,-0.0473
6,AGACTGAT,-0.0452
7,GATGCACC,-0.0503
8,AGGACTAG,-0.167
9,CTAACCAC,0.0781
10,ACTGCTTC,-0.207
11,CGTTTGTC,0.144
12,GATTGCCC,-0.0886
13,AACACCAA,0.0246
14,AGTACAAG,-0.037
15,ATACAACG,0.0808
16,ATCATTTC,0.0949
17,ACCGAGCG,0.114
18,CTAAAACC,0.0673
19,CGGCCTAG,-0.183
20,ACTACTCA,0.14
21,ACGTACGT,-0.00852
22,AAAGGCAC,0.392
23,CGCGTCGA,0.15
24,ACAGCACG,0.0746
25,CGTTCCAC,0.00117

row,Sequence,PBM E-score
1,TAGTCCAA,-0.079
2,AGGCCTGG,-0.349
3,ACACAGCG,0.262
4,TCCGTGCA,0.258
5,GTGATGGA,-0.212
6,ATTAAAGA,0.156
7,ATGTTTGC,-0.134
8,TCGTTCCA,-0.0826
9,AGTACTGG,-0.188
10,ACATCGTA,0.0549
11,ACATACGA,0.206
12,CAAGCCAA,0.082
13,GAGTAGCA,-0.0825
14,CAGACTAC,0.0144
15,CTTAATTA,0.039
16,CAACCTTA,-0.0202
17,ATAGACTC,-0.314
18,ATCATAAA,0.105
19,GGAATAAA,0.075
20,CGGACCTA,-0.0968
21,GGGTCCAA,-0.219
22,TAAGTACA,0.0848
23,ATTTAATC,0.148
24,CCAAGTTA,-0.0429
25,TTCCGAAA,-0.0464

row,Sequence,PBM E-score
1,GGTCCGTA,0.0291
2,CAGGAATA,-0.0333
3,ACACTCCC,-0.223
4,CATTTTCA,0.142
5,CGGACGCC,0.185
6,ACATCCGG,-0.202
7,GCTTGGGA,-0.0458
8,ACAGCGTC,-0.105
9,CACTGGAG,-0.156
10,AGGAGCCT,-0.0891
11,ATCAGCAG,0.0401
12,AATGGCCT,0.106
13,GGATGGAA,-0.132
14,CGTCTGAA,-0.0304
15,GGTAAAGA,0.13
16,CTGTACCC,-0.13
17,ATTAAATG,0.0917
18,AATGAGTA,0.0887
19,GCGGTGCA,0.0253
20,ATAGCCAA,-0.0158
21,AATTTTAA,0.183
22,GGTTCGCA,-0.149
23,CTGGCTTA,-0.194
24,AACTGGGT,-0.116
25,ACGATTTG,0.124

row,Sequence,PBM E-score
1,CTATTAGC,0.203
2,ACCTTCCG,-0.0752
3,AAATGCCC,-0.108
4,CAGTGATA,-0.0612
5,AATTTAAG,0.0361
6,AATTCCAG,0.0141
7,CATCCTCA,-0.0408
8,GCCGGTAC,-0.0677
9,AAGAGAGA,-0.129
10,GCGCATCC,0.0373
11,GTATACAA,0.0557
12,CCATTGGG,-0.271
13,GGCAGTAC,0.111
14,ATTTCAAG,-0.0264
15,AATCTCAC,-0.0391
16,GTACGGGA,0.0383
17,AAAAGCTT,-0.0455
18,CAGTACAA,0.0526
19,ACATGTCC,-0.0333
20,CATTCCCG,0.0968
21,CATTAACC,0.128
22,ATCAGTCG,0.0722
23,ATGAATTA,0.175
24,CCTACGTC,-0.238
25,ACTGTTCT,-0.054

row,Sequence,PBM E-score
1,AAAACCAA,0.207
2,ATTCACTC,0.143
3,ACGAGACA,-0.112
4,GTGTCAAA,0.188
5,AAAGGCCG,0.277
6,GGGGAGTA,-0.21
7,ATACTTGG,-0.132
8,AATGGGTG,-0.213
9,ATCTATGG,-0.175
10,ACGCCCTC,0.0547
11,ATTGGCTC,0.0423
12,CGAAGGTC,-0.237
13,ATCGGGGG,-0.339
14,GACAAAAA,0.16
15,CGTTGCGC,0.247
16,AGCGAAAT,-0.0393
17,GCGAAAGA,-0.0909
18,GAATACAA,0.112
19,AACGGTAC,0.207
20,CTCGTGTC,-0.0913
21,CTACTTTA,-0.00743
22,TGAGTCAA,-0.0858
23,AGCCAGCA,-0.297
24,GCATTCGC,-0.0355
25,AATGATCA,0.0814

row,Sequence,PBM E-score
1,CATCTATA,0.0866
2,CCGCCCGG,0.14
3,GAGCAGTA,0.0417
4,GCCTCAGC,0.152
5,AATTATGC,0.236
6,ATCGAATC,0.0726
7,GCAAATGC,0.164
8,CCGCCGAC,-0.0454
9,AATTAGGT,0.0597
10,CGGACGTA,0.0486
11,CGTTAGTC,-0.0636
12,ATCTCCCG,-0.208
13,ACTAGGAA,-0.161
14,AGCGACCA,-0.0329
15,CTCTGAAA,0.0291
16,ATTAAGCC,0.136
17,CTCTACAG,-0.0812
18,CAGTTCTA,-0.128
19,GGATGTAC,-0.168
20,AAGATTCT,0.0266
21,GTTCACGA,-0.0527
22,AAACGCGG,0.295
23,ATGGCTAA,-0.00986
24,ATAGCTAA,-0.163
25,CTCAAAAC,0.15

row,Sequence,PBM E-score
1,CCCTCGTC,-0.144
2,CGTCCTGA,-0.0412
3,CAAACCTC,-0.344
4,CGGGATGA,-0.149
5,CAGTTTAG,-0.172
6,GTCTTACA,-0.154
7,ACAGCTTC,-0.2
8,GTGGCTGA,-0.00478
9,GTAGGGAA,-0.018
10,AAAACCTG,-0.16
11,GATTCACA,0.0471
12,GTCTCAAA,-0.0727
13,CAAAACCA,0.152
14,GAATCTTA,0.158
15,ATAAGTGC,-0.0812
16,GATGAGTA,-0.00716
17,CAGCGTCC,-0.148
18,CAATCTGC,-0.0198
19,ATTCCGGC,0.0336
20,CAAACACC,0.0562
21,CTATTATC,0.108
22,AACGCTCA,-0.229
